Laboratory results taken from PMC4336329 (PLoS ONE, 2015).
Screen size: about 310,000 compounds; about 2,200 (0.71%) showed an effect of 50% or more. Effects have a minus sign here. The list shows a part of the results.

molecular target: human ether-à-go-go-related gene (hERG) potassium channel (human, UniProt Q12809); experiment: primary screen, population patch clamp on CHO cells stably expressing hERG
Sequence (Q12809 whole entry, looked up): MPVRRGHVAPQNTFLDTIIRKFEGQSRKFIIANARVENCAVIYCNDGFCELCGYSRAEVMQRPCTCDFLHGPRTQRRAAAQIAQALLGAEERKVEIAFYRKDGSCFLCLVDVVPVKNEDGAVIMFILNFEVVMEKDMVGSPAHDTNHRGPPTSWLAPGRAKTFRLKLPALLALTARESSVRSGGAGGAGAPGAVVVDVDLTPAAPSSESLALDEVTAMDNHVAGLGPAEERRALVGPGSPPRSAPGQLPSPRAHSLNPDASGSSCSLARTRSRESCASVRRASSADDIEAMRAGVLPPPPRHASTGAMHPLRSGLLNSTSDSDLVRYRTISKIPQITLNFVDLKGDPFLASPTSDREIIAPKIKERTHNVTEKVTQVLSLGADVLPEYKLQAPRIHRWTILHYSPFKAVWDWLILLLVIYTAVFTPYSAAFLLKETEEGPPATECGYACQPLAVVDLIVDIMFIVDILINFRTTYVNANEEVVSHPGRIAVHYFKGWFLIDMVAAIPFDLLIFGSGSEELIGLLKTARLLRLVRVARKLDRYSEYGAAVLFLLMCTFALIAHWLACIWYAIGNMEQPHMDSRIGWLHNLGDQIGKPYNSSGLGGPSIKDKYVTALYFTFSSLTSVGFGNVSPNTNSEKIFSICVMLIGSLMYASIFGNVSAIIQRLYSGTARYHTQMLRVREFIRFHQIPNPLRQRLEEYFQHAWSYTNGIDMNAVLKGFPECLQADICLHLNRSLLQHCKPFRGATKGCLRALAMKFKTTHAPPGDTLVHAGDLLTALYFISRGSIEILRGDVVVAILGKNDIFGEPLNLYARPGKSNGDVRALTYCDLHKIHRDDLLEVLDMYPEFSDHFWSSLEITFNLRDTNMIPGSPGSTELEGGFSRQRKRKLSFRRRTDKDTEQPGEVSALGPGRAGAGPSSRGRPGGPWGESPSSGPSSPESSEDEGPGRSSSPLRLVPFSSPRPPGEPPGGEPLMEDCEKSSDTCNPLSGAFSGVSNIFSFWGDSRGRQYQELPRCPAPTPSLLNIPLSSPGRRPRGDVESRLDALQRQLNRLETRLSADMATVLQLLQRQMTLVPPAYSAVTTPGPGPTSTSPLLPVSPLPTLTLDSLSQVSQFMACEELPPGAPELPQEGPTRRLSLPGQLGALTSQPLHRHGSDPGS

Point of comparison: CCCNC(=O)Cc1ncn[nH]1, “hERG current change (%, negative = inhibition) at 1uM” value 5.94%. Against it:
- Cc1cc(C)c(OCC(=O)OCC(=O)NC2CCC(C)CC2)c(C)c1 (stereo not shown) — higher, 14.7%
- Cc1cccc(C)c1NC(=O)CN(C)C(=O)c1cc([N+](=O)[O-])ccc1N1CCOCC1 — higher, 26%
- Cc1ccc(NC(=O)NNC(=O)COc2ccc(Cl)cc2)cc1 — higher, 13%
- O=C(NCc1ccccn1)c1ccc(CNS(=O)(=O)c2cccc(Cl)c2)cc1 — lower, 3.96%
- Cc1ccc(S(=O)(=O)NCc2ccccc2)cc1C(=O)NCCc1ccc(S(N)(=O)=O)cc1 — lower, 1.48%
- NS(=O)(=O)c1cccc(NS(=O)(=O)c2cccc(C(F)(F)F)c2)c1 — higher, 13.1%
- CC(=O)OCC1OC(OC(C)=O)C(NC(=O)c2cccnc2)C(OC(C)=O)C1OC(C)=O (stereo not shown) — lower, 3.31%
- COc1ccc(S(=O)(=O)Nc2ccc(S(=O)(=O)N3CCOCC3)cc2)cc1C — higher, 10.6%
- CCCC(C(=O)NCC1CCCO1)N(Cc1ccccc1)C(=O)CNS(=O)(=O)c1ccccc1 (stereo not shown) — lower, -0.543%
- COc1ccc(NC(=O)CCSc2ccc(F)cc2)cc1 — higher, 10.7%
- O=C(OC1CCCCC1=O)c1cc(Cl)ccc1[N+](=O)[O-] (stereo not shown) — higher, 10.1%
- O=S(=O)(c1cc(Cl)ccc1Cl)N1CCN2CCCC2C1 (stereo not shown) — higher, 13%
- O=C(CSc1nnc2scc(-c3ccccc3)n12)NCc1ccco1 — lower, 3.93%
- CC(C)CN(C(=O)CN1CCN(c2ccccc2O)CC1)c1c(N)n(CC(C)C)c(=O)[nH]c1=O — higher, 18.5%
- O=C(CCS(=O)(=O)c1ccc(Cl)cc1)Nc1nc(-c2ccncc2)cs1 — lower, -4.83%
- COc1ccc(OC)c(NC(=O)c2cc(-c3ccc(C)cc3O)n[nH]2)c1 — lower, -0.884%
- CC(C)C(=O)Nc1cccc(C(=O)Nc2cc([N+](=O)[O-])ccc2Cl)c1 — higher, 11.8%
- CCC1CCCCN1CCCCOc1cccc(Cl)c1.O=C(O)C(=O)O (stereo not shown) — lower, -55.6%
- O=C(CCC1CCCC1)Nc1ccc([N+](=O)[O-])cn1 — lower, 0.811%
- CCOc1ccccc1NC(=O)CN(c1ccc(Cl)cc1)S(C)(=O)=O — higher, 7.55%
- CCOC(=O)Cc1csc(/N=C/c2c(O)n(-c3ccccc3C(F)(F)F)c(=O)c3ccccc23)n1 — lower, -3.74%
- O=C(NCc1ccc(Cl)cc1)c1cc(=O)[nH]c2ccccc12 — higher, 11.5%
- CS(=O)(=O)c1ccc(Cl)c(NC(=O)COC(=O)c2cccc(C#N)c2)c1 — the same, 5.94%
- Cn1c(NC(=O)c2cc(Cl)ccc2Cl)cc(=O)n(C)c1=O — lower, -6.29%
- O=C(CCNC(=O)N1CC(=O)Nc2ccccc21)Nc1ccc(F)c(Cl)c1 — higher, 10.5%
- CN(C)CCCNc1c2c(nc3ccccc13)CCC2.Cl — higher, 7.24%
- O=C1C(c2ccccc2)NC(=S)N1C1CCCCC1 (stereo not shown) — higher, 7.14%
- COc1ccc(C(=O)/C=C/Nc2ccccn2)cc1 — higher, 12.4%
- CCOc1ccccc1N1CC(C(=O)Nc2nccs2)CC1=O (stereo not shown) — higher, 7.48%
- Cc1cc(C)cc(N(CCC#N)C(=O)CN2C(=O)NC3(CCCC3)C2=O)c1 — higher, 10.1%
- CCCCN(CC)CCCNC(=O)c1ccc(CS(=O)(=O)c2ccccc2C)o1 — lower, 2.5%
- Cc1cc(C)c2[nH]c(=O)c(CN(Cc3cccs3)C(=S)NCc3ccco3)cc2c1 — lower, 0.338%
- CC(=O)c1cccc(-n2nnnc2SCC(=O)Nc2cc(C)on2)c1 — higher, 12.1%
- CCCCn1c(=O)c2c(c3ccccc31)OCC(=O)N2 — higher, 7.19%
- Cc1cccc(-c2cc3c(nn2)-c2ccccc2C3=O)c1 — lower, 4.87%
- CCOC(=O)C1(Cc2cccc(OC)c2)CCCN(C(=O)c2ccc(OC)o2)C1 (stereo not shown) — lower, -8.25%
- O=C(CCSc1ccc(F)cc1)NNC(=O)c1ccc([N+](=O)[O-])cc1 — lower, -21.4%
- O=C(/C=C/c1cccs1)c1ccc([N+](=O)[O-])cc1 — higher, 13.9%
- O=C(O)C/C(=C\c1ccc(N2CCOCC2)c([N+](=O)[O-])c1)c1nc2ccccc2s1 — lower, 5.65%
- CC(C)(C)C1CCC(OCC(O)CN2CCN(c3ccccc3)CC2)CC1.Cl (stereo not shown) — higher, 11.4%
- CN=C(NC#N)NCCSCc1nc[nH]c1C — higher, 13%
- O=C(CCCC(=O)c1ccc(F)cc1)c1ccc(F)cc1 — lower, 5.62%
- CC1CCCN(C(=S)Nc2ccc3nc4n(c(=O)c3c2)CCCCC4)C1 (stereo not shown) — lower, -43%
- CCOC(=O)C1CCCN(C(=O)CCNS(=O)(=O)c2cc(Br)cnc2N)C1 (stereo not shown) — higher, 10.8%
- CCOCCCNC(=O)C1CCN(S(=O)(=O)N2CCCCC2)CC1 — higher, 10.3%
- COc1cc(/C=N/NC(=O)C2COc3ccccc3O2)cc(OC)c1OC (stereo not shown) — higher, 12.3%
- CCOC(=O)c1cc(-c2ccccc2)n(CCC(=O)N2CCN(c3ccccc3OC)CC2)c1C — higher, 11.5%
- C#CCOCCOCCOCCNc1nc(N2CCN(C(=O)[C@H](CCC(=O)O)n3cc(C(N)CC(C)C)nn3)CC2)nc(N2CCN(C(=O)[C@H](CCC(=O)O)n3cc(C(N)[C@H](C)CC)nn3)CC2)n1.Cl (stereo partly shown) — higher, 11.4%
- COc1ccc(C(C(=O)NC2CCCC2)N(C(=O)c2ccco2)c2cccc(C(C)=O)c2)cc1OC (stereo not shown) — higher, 12.4%
- CC(C)CNC(=O)C(=O)NNC(=O)C1CCCCC1 — lower, 3.29%
- Cc1ccc(N2C(=O)CN(Cc3sccc3C)C2=S)cc1C — lower, 4.95%
- CCc1ccc(CN2CCC(N3CCC(C(=O)N4CCCC4)CC3)CC2)o1 — lower, -28.3%
- COC(=O)c1cccc(NC(=O)c2ccccc2)c1 — lower, 3.59%
- O=C(CCn1cccn1)N1CCCC(N2CCN(c3cccc(Cl)c3)CC2)C1 (stereo not shown) — lower, -11.8%
- O=C(CSc1nc2c([nH]c3ccccc32)c(=O)n1-c1ccccc1)N1CCOCC1 — lower, 5.12%
- CCc1ccc(C2=NN(S(C)(=O)=O)C(c3cccs3)C2)cc1 (stereo not shown) — lower, 3.41%
- O=C(CCn1ccc2ccccc21)NC1CCCc2ccccc21 (stereo not shown) — lower, -1.75%
- O=C(O)CCC(=O)NCc1ccc(F)cc1 — lower, 0.0865%
- Cc1ccc(-c2csc3ncnc(NCCC(=O)O)c23)cc1.Cl — higher, 10.1%
- CC(=O)c1cc2c(s1)-c1cc(F)ccc1OC2 — lower, 2.28%
- O=C(Nc1ccccc1)OCCN1CCN(Cc2ccccc2)CCC1=O — lower, -1.66%
- COc1cc(C(=S)N2CCOCC2)ccc1OC(=O)/C=C/c1ccco1 — higher, 9.77%
- Cn1c(SCC(=O)N2CC(=O)Nc3ccccc32)nc2ccccc2c1=O — higher, 8.32%
- Cc1ccc(-n2c(C)c(C)c3c(N)ncnc32)cc1 — higher, 8.28%
- S=c1sc2ccccc2n1CCc1ccncc1 — higher, 16.5%
- Oc1ccc(C=NC2CCCCC2)cc1 — higher, 15%
- Cc1cc(C)c(NC(=O)c2sc3nc(C)[nH]c(=O)c3c2C)c(C)c1 — higher, 12.4%
- O=C(/C=C/c1ccc(OCCCF)cc1)Nc1ccnc(-c2ccncc2)n1 — higher, 17.1%
- CCn1c(C)cs/c1=N\S(=O)(=O)c1ccccc1 — higher, 10.3%
- CCCn1c(=S)[nH]c2ccc(C(F)(F)F)cc21 — lower, -6.25%
- CCCCn1c(C(C)NC(=O)c2cccs2)nc2ccccc21 (stereo not shown) — higher, 17.1%
- Cc1cc(NC(=O)C(C)Oc2ccc(Cl)cc2Cl)no1 (stereo not shown) — lower, 4.53%
- COc1cc(C(=O)NCCOc2cccc(C)c2)c(Br)c(OC)c1OC — higher, 11.4%
- Cc1cccc(OCC(=O)Nc2ccccc2F)c1 — higher, 13.9%
- CCOC(=O)C1CCCN(S(=O)(=O)c2ccc(OC)cc2)C1 (stereo not shown) — lower, -1.51%
- Cn1c(Cl)nc2c1c(=O)n(Cc1cccc(Br)c1)c(=O)n2C — lower, 5.48%
- Cc1ccn2c(=O)nc(SCC(=O)N3N=C(c4cccs4)CC3c3ccc(F)cc3)nc2c1 (stereo not shown) — lower, 2.6%
- COc1cc2c(cc1OC)C(=O)N1[C@H]3c4cc(Cl)ccc4OC[C@@H]3[C@H](c3ccccc3)[C@]1(C)C(=O)N2 — higher, 13.1%
- CCOc1cccc(N(C(=O)CCC(=O)Nc2cc(C)on2)C(C(=O)NC(C)(C)C)c2ccc(OC)cc2)c1 (stereo not shown) — higher, 9.42%
- COC(=O)C1=C(c2ccc3ccccc3c2)C[C@@H]2CC[C@H]1N2C(=O)NC(C)C — higher, 10.5%
- CC(C)CCNC(=O)C1CCCCN1S(=O)(=O)c1ccc(F)cc1 (stereo not shown) — higher, 12%
- O=C(CCN1C(=O)/C(=C/c2cccs2)SC1=S)N1CCCCC1 — higher, 11.3%
- CNC(=O)C(=O)Nc1nc(C23CC4CC(CC(C4)C2)C3)cs1 — higher, 10.1%
- CCOC(=O)c1c(NC(=O)c2ccccc2C)sc2c1CC(C)(C)OC2 — higher, 8.48%
- CCOc1cc(CNCCO)cc(Br)c1OCc1cccs1.Cl — lower, -4.1%
- O=C(Cc1ccc(Br)cc1)N1CCN(c2ccccc2O)CC1 — higher, 9.37%
- CCOc1ccc(CCNC(=O)CN2CCN(Cc3ccccc3F)C2=O)cc1OCC — lower, -0.385%
